Reference: the supplement of paper PMC10681739
± gives the standard deviation of the averaged measurements. In all, about 4,100 sequences were measured (“arbitrary fluorescence units”: median about 780, highest 2% from about 22,000 on). This is one part of the list.

These sequences were tested against T1, ETS1 (UniProt P14921) (assay: ETS1 binding intensity (PBM fluorescence), ETS1 alone (arbitrary fluorescence units); higher = stronger binding). Conditions: ETS1 concentration 1 nM; RUNX1 concentration 0 nM.
T1 sequence: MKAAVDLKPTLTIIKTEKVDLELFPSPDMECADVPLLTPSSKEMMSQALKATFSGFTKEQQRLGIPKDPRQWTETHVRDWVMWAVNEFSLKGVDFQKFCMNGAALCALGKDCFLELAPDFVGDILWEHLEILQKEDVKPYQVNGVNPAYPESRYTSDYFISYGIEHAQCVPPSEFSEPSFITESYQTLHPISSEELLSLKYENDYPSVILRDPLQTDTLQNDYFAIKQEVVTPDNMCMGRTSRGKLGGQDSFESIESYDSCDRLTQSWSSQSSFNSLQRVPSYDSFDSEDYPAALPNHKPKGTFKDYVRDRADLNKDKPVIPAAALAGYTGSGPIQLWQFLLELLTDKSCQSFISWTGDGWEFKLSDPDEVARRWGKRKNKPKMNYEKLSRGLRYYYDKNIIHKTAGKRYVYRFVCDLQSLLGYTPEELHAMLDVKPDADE
In short: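 Full-length recombinant human ETS1 (1 nM, no RUNX1) was incubated, per standard PBM protocols, on double-stranded Agilent 4 × 180k arrays of 36-bp genomic probes whose RUNX1 partner site was mutated. Bound ETS1 was detected with anti-ETS1 antibody (Cell Signaling Technology 14069) and Alexa488-conjugated secondary antibody, then scanned on a GenePix 4400A. Binding level is spot fluorescence intensity, summarised over replicate spots (four printed per sequence) and not normalised.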

Sequence	ETS1 binding intensity
TGAGGGACTTTCGGGCTCGGTCCTTCCTGAGAGGTG	404
CCCCTCACTTCCCTCAACCCTTCCCATAAACTGGGA	1620
CAGTGACATCCTATATTAATTTAAGGTCACTGCTTA	2460
ACCAGAACAGGAAATGTTAGTGCTTGAGTTAACGGT	4300
CCTGCCGAGGAAGTCCCACGTCACTGCGCTTAGAGT	487
CAGGCCTTTCCTGCTATCGTTTGGGGTTTGAGCAGT	1970
CCCTCAGCGGCCTCCACAGAGCAGGAAGCAGCCCTC	647
TTGGGGTTTGTCAGCCCCAGACAGGCAGGAAACGCT	599
CGAGCTGCAGTTTTACGCAGACACACTTCCGGCGCT	3050
AAGCCATTTTACGGCTAAAGCCTTTCCGCCCTTAAA	441
CAGTGTTCCGCGTCCGGGGGTTTATGGGAGTTGCCT	1440
CTAGCTCCGCCCCGCGAGAAGGACTTCCGCGTCCTC	847
CTTGCTTAACGCTTCCTGAGGGGTGGCTTGGGTTTT	1360
GCACCCTTCCTGCTTCCCACAGTGTCGTATAAGAGG	4320
AACAACTGACCGGACAGAACACAGCCCCAAAACACG	436.4 ± 1.1
AGGCTGTTGTGAGTTGCGCCGCTTCGGATGTGGGAG	364
TTCGCCCTTCCCTTCCTATGAAAAGCACTTTCCTTC	565
CGACCTTACGGGGCGGTGCAAGCTGGCGGAACCCGA	374
ACATGAGGAAGGGGTAAGTGGATTTCCCTACCCCAA	390
CTGCCTTTCCTGCTAGGGTACAAATCACAGCCTTAG	1670
CCGCTTTTTGTAGGCCGGGTGGGTTTCCTAATCTGG	480
ATACAGCGGCACTGGGTTGGGGTTTCCTGGATGAAC	517
TGTCTCATTTCCTGTAGGTAACAGGCACCAAAATAG	26500
TTTTTCTTGTGACTTCTTCAGCCACATCCTGACCAA	601
TACACACCAAAAACTCCTCACAGCCTCACTTCCTGT	2020
TGCAGACTACGGCGGAGGTGGTCTGAGGAAGTTCTA	428
GCGATGTTTCCGAGGCAACGCGCTGGTGTGAGTTAG	533

Sequence	ETS1 binding intensity
TGTAATTTGGGGTTAGCACAACACAGGAAGTCCTGC	1150
AACCAGAATAACGACAGATCAAGCCGGAAGCACATG	1490
AATGCCGGATATTGGTTCTGGTAAGTCACAAAAAAG	5550
GGGCTATTGTTTCCTCCCCCATGTGACAACAGCCTC	1050
TGTCTCTCACCCCAAAATCCACTTCCTATGATGTTT	1040 ± 190
TGGCGGCGGATACTGCCCATGGCGCGAGGCCGTAAG	480
TTCAACAGGATATTGCTTTGTTATCACAGGCCCTTT	2310
CTACGCCAGAGAGCGGGGCGGGAGCGGAAGCGACTC	1050
CCACACGGAAGGGAGTCGTGTCGTGCTTTACCCCGG	377
AGCGGATTCCGGACATAACAATCTACAGCGGGCTTA	873 ± 82
ACTTACTTCCCGACGTCACAGCCACCGAAACTACAG	1920
TACCGCTGCTTCCTGCCTGCGCGTTGAGCCTGTGCC	9370
ACAGCGCCTCTTCCTGCTCTACCTCATCTGATGTCC	2790
TGCGAGCACCCGGAAGCCGCTTGGGGGCTCCCGGAG	2280
TGCCTTCTACTCCGGAACTCAGACCCCTGCCTTCTA	660
AGGCGCGGATGGTGTCGCAAAGACCAGCAGCGCTAC	315
TATCAGCTTCCGACGTGCCCCTCGGTATCTGGACTA	1600
TTTAAGGTTCATGCTGTACTCAGAACATCCTGTTCT	1150
GGGGCGATTACAGAACGGGTAACTCAGGATGATTCA	541
ACTTTCGCGACGCAGGAAGCGCCCACGAAGGGAGGA	1080
GCGTGGGGCCGAAGAGCGAGTCGGGAAACGATTTTA	408
GAAGGAAAGTGCTTTTCATAGGAAGGGAAGGGCGAA	350
GCGCTCCGGGGATTAGGAGGGCGCTTCCGGTGGCGG	7160
TACAGTCTCTGTGATTTACTGAGAGGAAGTGGTTCT	449
GTTTGAAGGGAAGTGGGTGTTGACCTTCGGGCAACT	832
CGGCAGTAGGTTGGAGGTGTGGCGGAAATGGTTGGG	590
TCCCGTTCCAGAGCGGAGCCGGATGTTTGCCGAGCC	1700

Sequence	ETS1 binding intensity
CTGTCCAGCCCAGAGAGGCCCCGGAAAGCCAGTGCC	354
GAAACTTAGTCTCTGGGGAGAAGGATGTATCTTTGC	343
CATGAATCCCCTCACACAACAGGAAGGGGGTGTGGC	696
CTCCTGCTCACAGAAGCTCACTGTTTCCTGTCTAGC	2690
AGACGTGCTTACAAAGGTCCCAAGTTCCGGCAGTAA	542
GAAGAGAAAGGAAACGGCTCGCGATTTCTGGGGTTC	703
TGTCCGGGCAGGAAGGGGTGCTCTCTGGGCTTGGAG	940
GTCCCACCTCAGGCCTCCAGCCACATCCTGGGCCTC	631
GATGGTGCTTTTGGCAGAGGCCACATCCTGTCTGTT	3240
GTGATGGAGGTTCCCAGATCATTTCCTGCTCTTAGC	2600
GAGGGAAGTGAATCAGGCGCCGGGTAGTAGGTTGCT	374
CGGAGAGCTCGCGGCAATTCCGTTTCCCCGCCCTTT	404
GTCGTCCCGGAAACCGGGATGCCGTTATCAGAGCGA	2750
CTTCTACTTCCTGCCCCGCCCCCAGCTGTGCTCACA	17900
ACGGACAGAATTTCCTCCCCCGTCACCAGAGCGACC	1470
TTGGTCTTGGGGTTTTGCAAGGAAGGGGTGATATAT	517
CGGCCGGACAGCGGCTCCATCCGGGGAACCCGTAGC	843
GCTCGCGCTTCCTGGGAGCCTTTGATGTGAGTTCTT	2740
CTTCGGCCTTCCGTGATGGAATCCACCTCCTCTACA	655
CATGTCGTTATCTCATCGTTTTAAAGGATGTGGGGA	481
TTGGGTTCCTGCCAACGCTCTCCAGCCACTGCGTAA	762
CTCTCACTTCCCGTGTGAGAAAAATCACAGAAAAGC	8110
CCCAGAGATGAGGTGCATGTGGCAGGATGGCCCAGC	413
ACCGTGCAGTCTGCAAGCAACCCTTCCGCTCCTTCA	606
GAAACAATTTCCTGTACCTCTGTCGTAAAAATGATA	11000
CTGTTCTCATCCGCCCGCTCTGAGTCACCTACACCT	1420
